In patent US20240076343A1:

B1: 1H3-hIgG1-L6-hIL-2 (R38E/I92P) (protein)
heavy: EVQLVESGGGLVQPGRSLKLSCAVSGFTFSDYAMAWVRQAPKKGLEWVATISYDGSRTYYRDSVKGRFTISRDNAKITLYLQMDSLRSEDTATYYCARHGSGYFDYWGQGVMVTVSS[not shown - about 450 residues with a human IgG1 Fc and changes]
light: DTVLTQSPALAVSPGERVTISCRASESVRTGVHWYQQKPGQQPKLLIYGASNLESGVPARFSGSGSGTDFTLTIDPVEADDTATYFCQQSWNDPFTFGSGTKLEIKRTVAAPSVFIFPPSDEQLKSGTASVVCLLNNFYPREAKVQWKVDNALQSGNSQESVTEQDSKDSTYSLSSTLTLSKADYEKHKVYACEVTHQGLSSPVTKSFNRGEC
B2: 1H3-hIgG1-L6-hIL-2 (R38E/H16E) (protein)
heavy: EVQLVESGGGLVQPGRSLKLSCAVSGFTFSDYAMAWVRQAPKKGLEWVATISYDGSRTYYRDSVKGRFTISRDNAKITLYLQMDSLRSEDTATYYCARHGSGYFDYWGQGVMVTVSS[not shown - about 450 residues with a human IgG1 Fc and changes]
light: B1 light
B3: 1H3-hIgG1-L6-hIL-2 (R38K/D20A) (protein)
heavy: EVQLVESGGGLVQPGRSLKLSCAVSGFTFSDYAMAWVRQAPKKGLEWVATISYDGSRTYYRDSVKGRFTISRDNAKITLYLQMDSLRSEDTATYYCARHGSGYFDYWGQGVMVTVSS[not shown - about 450 residues with a human IgG1 Fc and changes]
light: B1 light
B4: 1H3-hIgG1-L6-hIL-2 (E15A) (protein)
heavy: EVQLVESGGGLVQPGRSLKLSCAVSGFTFSDYAMAWVRQAPKKGLEWVATISYDGSRTYYRDSVKGRFTISRDNAKITLYLQMDSLRSEDTATYYCARHGSGYFDYWGQGVMVTVSS[not shown - about 450 residues with a human IgG1 Fc and changes]
light: B1 light
B5: 1H3-hIgG1-L6-hIL-2 (E15R) (protein)
heavy: EVQLVESGGGLVQPGRSLKLSCAVSGFTFSDYAMAWVRQAPKKGLEWVATISYDGSRTYYRDSVKGRFTISRDNAKITLYLQMDSLRSEDTATYYCARHGSGYFDYWGQGVMVTVSS[not shown - about 450 residues with a human IgG1 Fc and changes]
light: B1 light
B6: 1H3-hIgG1-L6-hIL-2 (E15K) (protein)
heavy: EVQLVESGGGLVQPGRSLKLSCAVSGFTFSDYAMAWVRQAPKKGLEWVATISYDGSRTYYRDSVKGRFTISRDNAKITLYLQMDSLRSEDTATYYCARHGSGYFDYWGQGVMVTVSS[not shown - about 450 residues with a human IgG1 Fc and changes]
light: B1 light
B7: 1H3-hIgG1-L6-hIL-2 (H16A) (protein)
heavy: EVQLVESGGGLVQPGRSLKLSCAVSGFTFSDYAMAWVRQAPKKGLEWVATISYDGSRTYYRDSVKGRFTISRDNAKITLYLQMDSLRSEDTATYYCARHGSGYFDYWGQGVMVTVSS[not shown - about 450 residues with a human IgG1 Fc and changes]
light: B1 light
B8: 1H3-hIgG1-L6-hIL-2 (H16Y) (protein)
heavy: EVQLVESGGGLVQPGRSLKLSCAVSGFTFSDYAMAWVRQAPKKGLEWVATISYDGSRTYYRDSVKGRFTISRDNAKITLYLQMDSLRSEDTATYYCARHGSGYFDYWGQGVMVTVSS[not shown - about 450 residues with a human IgG1 Fc and changes]
light: B1 light
B9: 1H3-hIgG1-L6-hIL-2 (R81A) (protein)
heavy: EVQLVESGGGLVQPGRSLKLSCAVSGFTFSDYAMAWVRQAPKKGLEWVATISYDGSRTYYRDSVKGRFTISRDNAKITLYLQMDSLRSEDTATYYCARHGSGYFDYWGQGVMVTVSS[not shown - about 450 residues with a human IgG1 Fc and changes]
light: B1 light
B10: 1H3-hIgG1-L6-hIL-2 (S87A) (protein)
heavy: EVQLVESGGGLVQPGRSLKLSCAVSGFTFSDYAMAWVRQAPKKGLEWVATISYDGSRTYYRDSVKGRFTISRDNAKITLYLQMDSLRSEDTATYYCARHGSGYFDYWGQGVMVTVSS[not shown - about 450 residues with a human IgG1 Fc and changes]
light: B1 light
B11: 1H3-hIgG1-L6-hIL-2 (I92A) (protein)
heavy: EVQLVESGGGLVQPGRSLKLSCAVSGFTFSDYAMAWVRQAPKKGLEWVATISYDGSRTYYRDSVKGRFTISRDNAKITLYLQMDSLRSEDTATYYCARHGSGYFDYWGQGVMVTVSS[not shown - about 450 residues with a human IgG1 Fc and changes]
light: B1 light
B12: 1H3-hIgG1-L6-hIL-2 (I92F) (protein)
heavy: EVQLVESGGGLVQPGRSLKLSCAVSGFTFSDYAMAWVRQAPKKGLEWVATISYDGSRTYYRDSVKGRFTISRDNAKITLYLQMDSLRSEDTATYYCARHGSGYFDYWGQGVMVTVSS[not shown - about 450 residues with a human IgG1 Fc and changes]
light: B1 light
B13: 1H3-hIgG1-L6-hIL-2 (I92E) (protein)
heavy: EVQLVESGGGLVQPGRSLKLSCAVSGFTFSDYAMAWVRQAPKKGLEWVATISYDGSRTYYRDSVKGRFTISRDNAKITLYLQMDSLRSEDTATYYCARHGSGYFDYWGQGVMVTVSS[not shown - about 450 residues with a human IgG1 Fc and changes]
light: B1 light
B14: 1H3-hIgG1-L6-hIL-2 (E95A) (protein)
heavy: EVQLVESGGGLVQPGRSLKLSCAVSGFTFSDYAMAWVRQAPKKGLEWVATISYDGSRTYYRDSVKGRFTISRDNAKITLYLQMDSLRSEDTATYYCARHGSGYFDYWGQGVMVTVSS[not shown - about 450 residues with a human IgG1 Fc and changes]
light: B1 light
B15: 1H3-hIgG1-L6-hIL-2 (F42D/D20A) (protein)
heavy: EVQLVESGGGLVQPGRSLKLSCAVSGFTFSDYAMAWVRQAPKKGLEWVATISYDGSRTYYRDSVKGRFTISRDNAKITLYLQMDSLRSEDTATYYCARHGSGYFDYWGQGVMVTVSS[not shown - about 450 residues with a human IgG1 Fc and changes]
light: B1 light

biological target: intermediate affinity hIL-2 receptor complex (IL-2Rβγ) (human) (UniProt P14784); test: cell-based or functional assay

Row | Binder | Fold change from hIL-2 (TF1 + IL-2Rβ), pSTAT5 fixed conc.
1 | B1 | 5 fold
2 | B2 | 3 fold
3 | B3 | 3 fold

biological target: high-affinity hIL-2 receptor (IL-2Rαβγ) (human) (UniProt P01589); test: cell-based or functional assay

Row | Binder | Fold change from hIL-2 (NK-92), pSTAT5 fixed conc.
4 | B1 | 24 fold
5 | B2 | 25 fold
6 | B3 | 17 fold

biological target: high-affinity hIL-2 receptor (IL-2Rαβγ) on NK-92 cells (human) (UniProt P01589); test: cell-based or functional assay

Row | Binder | Fold change from hIL-2 (NK-92) | Fold change from rhIL-2 (NK-92)
7 | B4 | 1 fold | –
8 | B5 | 1 fold | –
9 | B6 | 1 fold | –
10 | B7 | 1 fold | –
11 | B8 | 1 fold | –
12 | B9 | 1 fold | –
13 | B10 | 1 fold | –
14 | B1 | – | > 10000 fold
15 | B2 | – | 658 fold
16 | B3 | – | 66 fold
17 | B11 | 1 fold | –
18 | B12 | 1 fold | –
19 | B13 | 1 fold | –
20 | B14 | 1 fold | –

biological target: intermediate affinity hIL-2 receptor (hIL-2Rβγ) on TF1+IL-2Rβ cells (human) (UniProt P14784); test: cell-based or functional assay

Row | Binder | Fold change from rhIL-2 (TF1 + IL-2Rβ) | Agonistic Activity (TF1 + IL-2Rβ)
21 | B1 | > 10000 fold | –
22 | B2 | 58 fold | –
23 | B3 | 369 fold | 70%

biological target: intermediate affinity hIL-2 receptor complex (IL-2Rβγ) on TF1+IL-2Rβ cells (human) (UniProt P14784); test: cell-based or functional assay

Row | Binder | Fold change from hIL-2 (TF1 + IL-2Rβ)
24 | B4 | 1 fold
25 | B5 | 1 fold
26 | B6 | 1 fold
27 | B7 | 1 fold
28 | B8 | 1 fold
29 | B9 | 1 fold
30 | B10 | 1 fold
31 | B11 | 1 fold
32 | B12 | 1 fold
33 | B13 | 1 fold
34 | B14 | 1 fold
35 | B15 | 3 fold
